Data on 51 test systems can be found in the supplement of paper PMC11055344.

Compound in test [1]: CC1(C)S[C@@H]2[C@H](NC(=O)Cc3ccccc3)C(=O)N2[C@H]1C(=O)O [penicillin G]
The test can be described thus: Broth microdilution. (Broth dilution looks for growth in wells or tubes with falling amounts of substance.)

Compound in test [2]: CC1(C)S[C@@H]2[C@H](NC(=O)[C@H](N)c3ccc(O)cc3)C(=O)N2[C@H]1C(=O)O [amoxicillin]
The test can be described thus: Broth microdilution.

MIC of nasopharyngeal S. pneumoniae isolates by broth microdilution (range and time not stated); higher = less susceptible. No active / inactive call per row; the paper counts penicillin above 0.06 and amoxicillin above 0.5 mg/L as non-susceptible (EUCAST). The lowest value, 0.01, is taken as the floor ('<='); the source prints it plain. Penicillin G is assumed for 'penicillin'. Isolates are numbered anew. PBP alleles are the type numbers of penicillin-binding proteins 1a, 2b and 2x; equal numbers mean equal sequences.

By MIC is commonly meant the lowest concentration found to suppress growth. As to “Streptococcus pneumoniae isolate 174 (PBP alleles 1a 2b 2x: 2_0_6, serotype: 23A)”, the results for the MIC in test [1] and in test [2] were 0.03 µg/mL and no more than 0.01 µg/mL, respectively.
The like results for “Streptococcus pneumoniae isolate 175 (PBP alleles 1a 2b 2x: 0_0_2, serotype: 35B)” were, in that order, 0.03 µg/mL and no more than 0.01 µg/mL.
The like results for “Streptococcus pneumoniae isolate 176 (PBP alleles 1a 2b 2x: 7_1_1, serotype: 23B1)” were, in that order, 0.25 µg/mL and 0.06 µg/mL.
For the test system “Streptococcus pneumoniae isolate 177 (PBP alleles 1a 2b 2x: 0_0_2, serotype: 35B)”, the MIC in test [1] and in test [2] was 0.03 µg/mL throughout.
With “Streptococcus pneumoniae isolate 178 (PBP alleles 1a 2b 2x: 25_69_56, serotype: Non-typeable/NCC2b)”, the minimal inhibitory concentration (MIC) in test [1] and in test [2] was 1 µg/mL in each case.
Turning to “Streptococcus pneumoniae isolate 179 (PBP alleles 1a 2b 2x: 0_New_3, serotype: 35F)”, the MIC in test [1] and in test [2] was no more than 0.01 µg/mL each time.
Consider “Streptococcus pneumoniae isolate 180 (PBP alleles 1a 2b 2x: 0_0_0, serotype: 35B)”, for which the MIC in test [1] is 0.03 µg/mL; in test [2], no more than 0.01 µg/mL.
In the same order, the values of “Streptococcus pneumoniae isolate 181 (PBP alleles 1a 2b 2x: 0_0_3, serotype: 15A)” are no more than 0.01 µg/mL and no more than 0.01 µg/mL.
Consider “Streptococcus pneumoniae isolate 182 (PBP alleles 1a 2b 2x: New_New_New, serotype: 15F)”, for which the MIC stood at 0.25 µg/mL in test [1] and 0.125 µg/mL in test [2].
In the same order, the values of “Streptococcus pneumoniae isolate 183 (PBP alleles 1a 2b 2x: 0_0_2, serotype: 10A)” are 0.03 µg/mL and 0.03 µg/mL.
In the same order, the values of “Streptococcus pneumoniae isolate 184 (PBP alleles 1a 2b 2x: 0_0_New, serotype: 35B)” are 0.06 µg/mL and 0.06 µg/mL.
The like results for “Streptococcus pneumoniae isolate 185 (PBP alleles 1a 2b 2x: 0_0_2, serotype: 35B)” were, in that order, 0.03 µg/mL and no more than 0.01 µg/mL.
As for “Streptococcus pneumoniae isolate 186 (PBP alleles 1a 2b 2x: 0_6_2, serotype: 16F)”, the minimum inhibitory concentration (MIC) in test [1] and in test [2] was 0.03 µg/mL each time.
For “Streptococcus pneumoniae isolate 187 (PBP alleles 1a 2b 2x: 67_27_35, serotype: 15A)”, the MIC in test [1] and in test [2] was 0.25 µg/mL each time.
For “Streptococcus pneumoniae isolate 188 (PBP alleles 1a 2b 2x: 11_0_0, serotype: 17F)”, the minimal inhibitory concentration (MIC) was 0.03 µg/mL in test [1] and no more than 0.01 µg/mL in test [2].
In the same order, the values of “Streptococcus pneumoniae isolate 189 (PBP alleles 1a 2b 2x: 24_27_New, serotype: 15A)” are 0.125 µg/mL and 0.125 µg/mL.
For the test system “Streptococcus pneumoniae isolate 190 (PBP alleles 1a 2b 2x: 7_1_171, serotype: 23B1)”, the minimal inhibitory concentration (MIC) in test [1] came out at 0.25 µg/mL; in test [2] it was 0.125 µg/mL.
In the same order, the values of “Streptococcus pneumoniae isolate 191 (PBP alleles 1a 2b 2x: 0_0_3, serotype: 35F)” are 0.03 µg/mL and no more than 0.01 µg/mL.
The like results for “Streptococcus pneumoniae isolate 192 (PBP alleles 1a 2b 2x: 0_1_1, serotype: 23B1)” were, in that order, 0.125 µg/mL and 0.06 µg/mL.
In the same order, the values of “Streptococcus pneumoniae isolate 193 (PBP alleles 1a 2b 2x: 0_0_3, serotype: 35F)” are 0.03 µg/mL and no more than 0.01 µg/mL.
As for “Streptococcus pneumoniae isolate 194 (PBP alleles 1a 2b 2x: 2_0_3, serotype: 7C)”, the MIC in test [1] and in test [2] was no more than 0.01 µg/mL each time.
Consider “Streptococcus pneumoniae isolate 195 (PBP alleles 1a 2b 2x: 2_0_2, serotype: 15B/C)”, for which the MIC in test [1] and in test [2] was 0.03 µg/mL throughout.
Regarding “Streptococcus pneumoniae isolate 196 (PBP alleles 1a 2b 2x: 1_0_0, serotype: 15A)”, the minimal inhibitory concentration (MIC) in test [1] and in test [2] was no more than 0.01 µg/mL throughout.
Turning to “Streptococcus pneumoniae isolate 197 (PBP alleles 1a 2b 2x: 16_13_19, serotype: 19A)”, the minimal inhibitory concentration (MIC) in test [1] and in test [2] was 0.125 µg/mL each time.
For the test system “Streptococcus pneumoniae isolate 198 (PBP alleles 1a 2b 2x: 7_1_1, serotype: 23B1)”, the MIC in test [1] and in test [2] was 0.125 µg/mL in each case.
“Streptococcus pneumoniae isolate 199 (PBP alleles 1a 2b 2x: 23_6_139, serotype: 19F)”: the MIC in test [1] was 0.06 µg/mL; in test [2] it was 0.03 µg/mL.
In the same order, the values of “Streptococcus pneumoniae isolate 200 (PBP alleles 1a 2b 2x: 0_0_2, serotype: 10A)” are 0.03 µg/mL and no more than 0.01 µg/mL.
Take “Streptococcus pneumoniae isolate 201 (PBP alleles 1a 2b 2x: 11_0_0, serotype: 17F)”: the MIC was 0.03 µg/mL in test [1] and no more than 0.01 µg/mL in test [2].
For “Streptococcus pneumoniae isolate 202 (PBP alleles 1a 2b 2x: 1_0_0, serotype: 9N)”, the minimal inhibitory concentration (MIC) in test [1] and in test [2] was no more than 0.01 µg/mL throughout.
As for “Streptococcus pneumoniae isolate 203 (PBP alleles 1a 2b 2x: 0_0_3, serotype: 35F)”, the MIC in test [1] and in test [2] was no more than 0.01 µg/mL each time.
Consider “Streptococcus pneumoniae isolate 204 (PBP alleles 1a 2b 2x: 24_27_28, serotype: 15A)”, for which the figures for the MIC in test [1] and in test [2] were 0.25 µg/mL and 0.03 µg/mL, respectively.
In the same order, the values of “Streptococcus pneumoniae isolate 205 (PBP alleles 1a 2b 2x: 2_3_2, serotype: 3)” are no more than 0.01 µg/mL and no more than 0.01 µg/mL.
In the same order, the values of “Streptococcus pneumoniae isolate 206 (PBP alleles 1a 2b 2x: 23_4_77, serotype: 12F)” are 0.06 µg/mL and 0.03 µg/mL.
In the same order, the values of “Streptococcus pneumoniae isolate 207 (PBP alleles 1a 2b 2x: 2_0_2, serotype: 15B/C)” are 0.03 µg/mL and no more than 0.01 µg/mL.
Take “Streptococcus pneumoniae isolate 208 (PBP alleles 1a 2b 2x: 1_0_0, serotype: 15A)”: the MIC in test [1] and in test [2] was 0.03 µg/mL in each case.
For “Streptococcus pneumoniae isolate 209 (PBP alleles 1a 2b 2x: 0_0_2, serotype: 10A)”, the results for the MIC in test [1] and in test [2] were 0.03 µg/mL and no more than 0.01 µg/mL, respectively.
In the same order, the values of “Streptococcus pneumoniae isolate 210 (PBP alleles 1a 2b 2x: 0_0_0, serotype: 35B)” are 0.03 µg/mL and no more than 0.01 µg/mL.
For the test system “Streptococcus pneumoniae isolate 211 (PBP alleles 1a 2b 2x: 2_6_0, serotype: 11A)”, the results for the MIC in test [1] and in test [2] were 0.03 µg/mL and no more than 0.01 µg/mL, respectively.
The like results for “Streptococcus pneumoniae isolate 212 (PBP alleles 1a 2b 2x: 2_0_6, serotype: 33F)” were, in that order, 0.03 µg/mL and 0.03 µg/mL.
For “Streptococcus pneumoniae isolate 213 (PBP alleles 1a 2b 2x: 2_0_2, serotype: 15B/C)”, the MIC in test [1] is 0.03 µg/mL; in test [2], no more than 0.01 µg/mL.
In the same order, the values of “Streptococcus pneumoniae isolate 214 (PBP alleles 1a 2b 2x: 1_0_2, serotype: 21)” are no more than 0.01 µg/mL and no more than 0.01 µg/mL.
In the same order, the values of “Streptococcus pneumoniae isolate 215 (PBP alleles 1a 2b 2x: 24_27_28, serotype: 15A)” are 0.25 µg/mL and 0.03 µg/mL.
The like results for “Streptococcus pneumoniae isolate 216 (PBP alleles 1a 2b 2x: 1_0_0, serotype: 15B/C)” were, in that order, no more than 0.01 µg/mL and no more than 0.01 µg/mL.
As for “Streptococcus pneumoniae isolate 217 (PBP alleles 1a 2b 2x: 0_6_2, serotype: 16F)”, the MIC in test [1] is 0.03 µg/mL; in test [2], no more than 0.01 µg/mL.
The like results for “Streptococcus pneumoniae isolate 218 (PBP alleles 1a 2b 2x: 2_0_2, serotype: 15B/C)” were, in that order, no more than 0.01 µg/mL and no more than 0.01 µg/mL.
The like results for “Streptococcus pneumoniae isolate 219 (PBP alleles 1a 2b 2x: 2_6_0, serotype: 11A)” were, in that order, no more than 0.01 µg/mL and no more than 0.01 µg/mL.
Regarding “Streptococcus pneumoniae isolate 220 (PBP alleles 1a 2b 2x: 11_0_0, serotype: 13)”, the minimal inhibitory concentration (MIC) in test [1] is 0.03 µg/mL; in test [2], no more than 0.01 µg/mL.
In the same order, the values of “Streptococcus pneumoniae isolate 221 (PBP alleles 1a 2b 2x: 23_27_77, serotype: 12F)” are 0.125 µg/mL and 0.125 µg/mL.
The like results for “Streptococcus pneumoniae isolate 222 (PBP alleles 1a 2b 2x: 23_0_0, serotype: 9N)” were, in that order, 0.03 µg/mL and no more than 0.01 µg/mL.
The like results for “Streptococcus pneumoniae isolate 223 (PBP alleles 1a 2b 2x: 0_0_53, serotype: 10A)” were, in that order, 0.03 µg/mL and no more than 0.01 µg/mL.
With “Streptococcus pneumoniae isolate 224 (PBP alleles 1a 2b 2x: 2_0_6, serotype: 23A)”, the MIC in test [1] and in test [2] was 0.03 µg/mL each time.
